# Data taken from the supplement of paper PMC8728848.
# The list shows a part of the results.
# B1: Gal 3 (Homo sapiens), P17931 (protein)
# chain: MADNFSLHDALSGSGNPNPQGWPGAWGNQPAGAGGYPGASYPGAYPGQAPPGAYPGQAPPGAYHGAPGAYPGAPAPGVYPGPPSGPGAYPSSGQPSAPGAYPATGPYGAPAGPLIVPYNLPLPGGVVPRMLITILGTVKPNANSILDFQRGNDVAFHFNPRFNENNRRVIVCNTKLDNNWGREERQSVFPFESGKPFKIQVLVEPDHFKVAVNDAHLLQYNHRVKKLNEISKLGISGDIDLTSASYTMI
# Assays:
# Assay in all cases: glycan array binding signal (z-score within array); higher = stronger binding
# Conditions in all cases: glycan notation: IUPAC condensed, linker removed; mutation: R144S
# [1] = biological target: Fuc(a1-2)[GalNAc(a1-3)]Gal(b1-4)GlcNAc(b1-3)Gal(b1-4)GlcNAc
# Method in brief: (§1)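 The binding signal is a Z-score computed within each array. Data were drawn from 3228 arrays in the Consortium for Functional Glycomics database, restricted to those with a known protein sequence. Scores were averaged over arrays of the same protein sequence at different concentrations or buffers, and over linkers, and negative values can be taken as non-binding.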
# [2] = biological target: Fuc(a1-2)[GalNAc(a1-3)]Gal(b1-4)GlcNAc(b1-3)Gal(b1-4)GlcNAc(b1-3)Gal(b1-4)GlcNAc
# Method in brief: as §1
# [3] = biological target: Fuc(a1-2)[GalNAc(a1-3)]Gal(b1-4)[Fuc(a1-3)]GlcNAc
# Method in brief: as §1
# [4] = biological target: Fuc(a1-2)[GalNAc(a1-4)]Gal(b1-4)GlcNAc
# Method in brief: as §1
# [5] = biological target: Fuc(a1-2)[GalNAc(b1-3)]Gal
# Method in brief: as §1
# [6] = biological target: Fuc(a1-3)GlcNAc
# Method in brief: as §1
# [7] = biological target: Fuc(a1-3)[Gal(b1-4)]Glc6S
# Method in brief: as §1
# [8] = biological target: Fuc(a1-3)[Gal(b1-4)]GlcNAc
# Method in brief: as §1
# [9] = biological target: Fuc(a1-3)[Gal(b1-4)]GlcNAc(b1-2)Man(a1-3)[Fuc(a1-3)[Gal(b1-4)]GlcNAc(b1-2)Man(a1-6)]Man(b1-4)GlcNAc(b1-4)GlcNAc
# Method in brief: as §1
# [10] = biological target: Fuc(a1-3)[Gal(b1-4)]GlcNAc(b1-3)Gal(b1-3)[Fuc(a1-4)]GlcNAc
# Method in brief: as §1
# [11] = biological target: Fuc(a1-3)[Gal(b1-4)]GlcNAc(b1-3)GalNAc
# Method in brief: as §1
# [12] = biological target: Fuc(a1-3)[Gal(b1-4)]GlcNAc(b1-4)Gal(b1-4)[Fuc(a1-3)]GlcNAc
# Method in brief: as §1
# [13] = biological target: Fuc(a1-3)[Gal(b1-4)]GlcNAc(b1-4)Gal(b1-4)[Fuc(a1-3)]GlcNAc(b1-4)Gal(b1-4)[Fuc(a1-3)]GlcNAc
# Method in brief: as §1
# [14] = biological target: Fuc(a1-3)[Gal(b1-4)]GlcNAc(b1-6)[Gal(b1-3)GlcNAc(b1-3)]Gal(b1-4)Glc
# Method in brief: as §1
# [15] = biological target: Fuc(a1-3)[Gal(b1-4)]GlcNAc6S
# Method in brief: as §1
# [16] = biological target: Fuc(a1-3)[Gal3S(b1-4)]GlcNAc
# Method in brief: as §1
# [17] = biological target: Fuc(a1-3)[Gal3S(b1-4)]GlcNAc6S
# Method in brief: as §1
# [18] = biological target: Fuc(a1-3)[GalNAc(b1-4)]GlcNAc
# Method in brief: as §1
# [19] = biological target: Fuc(a1-4)GlcNAc
# Method in brief: as §1
# [20] = biological target: Fuc(b1-3)GlcNAc
# Method in brief: as §1
# [21] = biological target: Gal(a1-2)Gal
# Method in brief: as §1
# [22] = biological target: Gal(a1-3)Gal
# Method in brief: as §1
# [23] = biological target: Gal(a1-3)Gal(b1-3)GlcNAc
# Method in brief: as §1
# [24] = biological target: Gal(a1-3)Gal(b1-3)GlcNAc(b1-2)Man(a1-3)[Gal(a1-3)Gal(b1-3)GlcNAc(b1-2)Man(a1-6)]Man(b1-4)GlcNAc(b1-4)GlcNAc
# Method in brief: as §1
# [25] = biological target: Gal(a1-3)Gal(b1-3)[Fuc(a1-4)]GlcNAc(b1-2)Man(a1-3)[Gal(a1-3)Gal(b1-3)[Fuc(a1-4)]GlcNAc(b1-2)Man(a1-6)]Man(b1-4)GlcNAc(b1-4)GlcNAc
# Method in brief: as §1
# [26] = biological target: Gal(a1-3)Gal(b1-4)Glc
# Method in brief: as §1
# [27] = biological target: Gal(a1-3)Gal(b1-4)GlcNAc
# Method in brief: as §1
# [28] = biological target: Gal(a1-3)Gal(b1-4)GlcNAc(b1-3)GalNAc
# Method in brief: as §1
# [29] = biological target: Gal(a1-3)Gal(b1-4)[Fuc(a1-3)]GlcNAc
# Method in brief: as §1
# [30] = biological target: Gal(a1-3)Gal(b1-4)[Fuc(a1-3)]GlcNAc(b1-2)Man(a1-3)[Gal(a1-3)Gal(b1-4)[Fuc(a1-3)]GlcNAc(b1-2)Man(a1-6)]Man(b1-4)GlcNAc(b1-4)GlcNAc
# Method in brief: as §1
# [31] = biological target: Gal(a1-3)GalNAc
# Method in brief: as §1
# [32] = biological target: Gal(a1-3)[Gal(a1-4)]Gal(b1-4)GlcNAc
# Method in brief: as §1
# [33] = biological target: Gal(a1-4)Gal(b1-3)GlcNAc(b1-2)Man(a1-3)[Gal(a1-4)Gal(b1-3)GlcNAc(b1-2)Man(a1-6)]Man(b1-4)GlcNAc(b1-4)GlcNAc
# Method in brief: as §1
# [34] = biological target: Gal(a1-4)Gal(b1-4)Glc
# Method in brief: as §1
# [35] = biological target: Gal(a1-4)Gal(b1-4)GlcNAc
# Method in brief: as §1
# [36] = biological target: Gal(a1-4)Gal(b1-4)GlcNAc(b1-2)Man(a1-3)[Gal(a1-4)Gal(b1-4)GlcNAc(b1-2)Man(a1-6)]Man(b1-4)GlcNAc(b1-4)GlcNAc
# Method in brief: as §1
# [37] = biological target: Gal(a1-4)Gal(b1-4)GlcNAc(b1-3)Gal(b1-4)Glc
# Method in brief: as §1
# [38] = biological target: Gal(a1-4)GlcNAc
# Method in brief: as §1
# [39] = biological target: Gal(a1-6)Glc
# Method in brief: as §1
# [40] = biological target: Gal(b1-2)Gal
# Method in brief: as §1
# [41] = biological target: Gal(b1-3)Gal
# Method in brief: as §1
# [42] = biological target: Gal(b1-3)Gal(b1-4)GlcNAc
# Method in brief: as §1
# [43] = biological target: Gal(b1-3)Gal(b1-4)GlcNAc(b1-2)Man(a1-3)[Gal(b1-3)Gal(b1-4)GlcNAc(b1-2)Man(a1-6)]Man(b1-4)GlcNAc(b1-4)GlcNAc
# Method in brief: as §1
# [44] = biological target: Gal(b1-3)GalNAc
# Method in brief: as §1
# [45] = biological target: Gal(b1-3)GalNAc(a1-3)[Fuc(a1-2)]Gal(b1-4)Glc
# Method in brief: as §1
binder,measurement,setting,value
B1,glycan array binding signal (z-score),[1],4.53
same,glycan array binding signal (z-score),[2],4.99
same,glycan array binding signal (z-score),[3],-0.356
same,glycan array binding signal (z-score),[4],-0.356
same,glycan array binding signal (z-score),[5],-0.358
same,glycan array binding signal (z-score),[6],-0.349
same,glycan array binding signal (z-score),[7],-0.358
same,glycan array binding signal (z-score),[8],-0.36
same,glycan array binding signal (z-score),[9],-0.354
same,glycan array binding signal (z-score),[10],-0.36
same,glycan array binding signal (z-score),[11],-0.357
same,glycan array binding signal (z-score),[12],-0.358
same,glycan array binding signal (z-score),[13],-0.358
same,glycan array binding signal (z-score),[14],-0.3
same,glycan array binding signal (z-score),[15],-0.366
same,glycan array binding signal (z-score),[16],-0.359
same,glycan array binding signal (z-score),[17],-0.349
same,glycan array binding signal (z-score),[18],-0.354
same,glycan array binding signal (z-score),[19],-0.358
same,glycan array binding signal (z-score),[20],-0.356
same,glycan array binding signal (z-score),[21],-0.362
same,glycan array binding signal (z-score),[22],-0.357
same,glycan array binding signal (z-score),[23],0.831
same,glycan array binding signal (z-score),[24],-0.347
same,glycan array binding signal (z-score),[25],-0.356
same,glycan array binding signal (z-score),[26],-0.07
same,glycan array binding signal (z-score),[27],0.491
same,glycan array binding signal (z-score),[28],0.785
same,glycan array binding signal (z-score),[29],-0.356
same,glycan array binding signal (z-score),[30],-0.359
same,glycan array binding signal (z-score),[31],-0.359
same,glycan array binding signal (z-score),[32],-0.348
same,glycan array binding signal (z-score),[33],-0.361
same,glycan array binding signal (z-score),[34],-0.359
same,glycan array binding signal (z-score),[35],-0.359
same,glycan array binding signal (z-score),[36],-0.35
same,glycan array binding signal (z-score),[37],-0.326
same,glycan array binding signal (z-score),[38],-0.354
same,glycan array binding signal (z-score),[39],-0.359
same,glycan array binding signal (z-score),[40],-0.358
same,glycan array binding signal (z-score),[41],-0.359
same,glycan array binding signal (z-score),[42],0.189
same,glycan array binding signal (z-score),[43],3.83
same,glycan array binding signal (z-score),[44],-0.356
same,glycan array binding signal (z-score),[45],1.84
